# This is one part of the list. Cleavage of a single-stranded DNA pool by Rep nickase domains was read by sequencing at 3 µM enzyme and 37 °C for 1 h; the strands have 90 letters, of which the middle is given. The score is log2 (uncut reads / reads without enzyme); strong cutting gives strongly negative numbers. There is no active / inactive call. Counts are relative to all reads; uncut strands gain when others are lost, and binding without cutting may add a little.
# Tests used:
# Experiment in all cases: uncleaved DNA left, log2 of reads against the no-enzyme library (log2 ratio); higher = less cleavage (more negative = more Rep cleavage of the k-mer); sequences stand for … in CTCGTCCG…ACCGGAGA
# [1] = tested on: T1, Rep nickase domain of Muscovy duck circovirus
# T1 sequence (protein, residues 1-111, tag omitted): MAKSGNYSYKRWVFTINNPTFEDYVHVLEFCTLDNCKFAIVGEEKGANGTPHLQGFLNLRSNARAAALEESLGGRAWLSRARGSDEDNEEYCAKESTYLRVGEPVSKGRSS
# Procedure: (§1)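 A pool of 90-nt single-stranded DNAs with seven random bases just before the constant AC of the nick site (name = the seven bases) was cut by 3 µM recombinant His6-SUMO-tagged Rep nickase domain (300 nM DNA, 50 mM HEPES pH 8.0, 50 mM NaCl, 1 mM MnCl2, 1 h, 37 °C, three replicates). Uncut DNA was amplified and sequenced.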
# [2] = tested on: T2, Rep nickase domain of banana bunchy top virus
# T2 sequence (protein, residues 1-94, tag omitted): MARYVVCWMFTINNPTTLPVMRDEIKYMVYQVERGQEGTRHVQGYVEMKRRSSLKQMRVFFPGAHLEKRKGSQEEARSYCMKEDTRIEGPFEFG
# Procedure: as §1
# [3] = tested on: T3, Rep nickase domain of cabbage leaf curl virus
# T3 sequence (protein, residues 1-116, tag omitted): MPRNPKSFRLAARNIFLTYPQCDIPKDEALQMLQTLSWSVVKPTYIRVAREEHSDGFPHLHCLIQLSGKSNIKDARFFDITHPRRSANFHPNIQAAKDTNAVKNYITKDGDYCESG
# Procedure: as §1
# [4] = tested on: T4, Rep nickase domain of chickpea chlorotic dwarf virus
# T4 sequence (protein, residues 1-124, tag omitted): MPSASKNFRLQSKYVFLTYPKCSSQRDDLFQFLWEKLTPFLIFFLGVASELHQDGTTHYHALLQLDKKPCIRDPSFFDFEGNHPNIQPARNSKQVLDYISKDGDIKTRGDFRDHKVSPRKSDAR
# Procedure: as §1
# [5] = tested on: T5, Rep nickase domain of faba bean necrotic yellows virus
# T5 sequence (protein, residues 1-98, tag omitted): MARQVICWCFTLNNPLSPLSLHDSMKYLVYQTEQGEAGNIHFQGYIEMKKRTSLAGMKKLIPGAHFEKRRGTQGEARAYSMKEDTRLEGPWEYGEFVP
# Procedure: as §1
# [6] = tested on: T6, Rep nickase domain of maize striate mosaic virus
# T6 sequence (protein, residues 1-117, tag omitted): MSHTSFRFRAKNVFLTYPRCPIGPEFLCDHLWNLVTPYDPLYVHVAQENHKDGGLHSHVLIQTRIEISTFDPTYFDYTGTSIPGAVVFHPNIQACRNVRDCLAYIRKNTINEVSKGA
# Procedure: as §1
# [7] = tested on: T7, Rep nickase domain of porcine circovirus 2
# T7 sequence (protein, residues 2-116, tag omitted): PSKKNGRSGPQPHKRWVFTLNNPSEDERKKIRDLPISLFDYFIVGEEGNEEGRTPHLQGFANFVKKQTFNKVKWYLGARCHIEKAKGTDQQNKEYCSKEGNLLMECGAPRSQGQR
# Procedure: as §1
# [8] = tested on: T8, Rep nickase domain of tomato yellow leaf curl virus
# T8 sequence (protein, residues 1-136, tag omitted): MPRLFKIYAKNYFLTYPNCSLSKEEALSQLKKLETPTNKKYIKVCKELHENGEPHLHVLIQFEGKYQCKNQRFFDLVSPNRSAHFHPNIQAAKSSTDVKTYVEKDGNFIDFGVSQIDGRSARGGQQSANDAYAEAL
# Procedure: as §1
# [9] = tested on: T9, Rep nickase domain of wheat dwarf virus
# T9 sequence (protein, residues 1-137, tag omitted): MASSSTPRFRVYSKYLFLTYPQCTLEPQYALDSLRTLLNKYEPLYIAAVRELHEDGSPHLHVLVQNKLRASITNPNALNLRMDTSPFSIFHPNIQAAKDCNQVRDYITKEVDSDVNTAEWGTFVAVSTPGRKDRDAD
# Procedure: as §1
Sequence,uncleaved DNA left (log2) [1],uncleaved DNA left (log2) [2],uncleaved DNA left (log2) [3],uncleaved DNA left (log2) [4],uncleaved DNA left (log2) [5],uncleaved DNA left (log2) [6],uncleaved DNA left (log2) [7],uncleaved DNA left (log2) [8],uncleaved DNA left (log2) [9]
TTTCTCC,0.135,-0.0836,0.11,0.188,-0.00172,1.17,0.0183,-0.00136,-0.0277
AGTATAC,-0.0627,-0.0445,0.0914,-0.244,-0.0292,-0.311,-0.0857,-0.0379,0.0169
GCTGAAC,0.0848,0.0981,0.131,0.626,0.0457,1.1,0.175,0.0546,0.152
TTGCTGA,0.116,-0.0616,-0.227,-0.158,-0.00663,-0.649,0.095,-0.0573,-0.0718
AACGACA,0.0175,0.085,-0.0105,-0.488,-0.0211,0.663,-0.0676,0.021,0.0649
GCCCTCC,0.148,0.193,0.274,0.602,0.108,0.859,0.171,0.0983,0.0158
GCCGGAG,0.0584,0.0768,-0.0239,0.371,0.0985,-0.205,0.156,0.109,0.125
TCCTATC,0.185,-0.0684,0.264,-0.0108,0.0951,-0.446,0.104,0.152,0.241
GCAGATG,0.0431,0.0413,0.0855,0.546,-0.0551,0.561,0.253,0.0188,0.13
TCCTTAT,-0.296,-0.183,0.0415,-0.723,-0.0496,-0.692,-2.25,-0.208,-0.201
GGCGATA,0.14,0.0193,0.262,1.04,-0.0996,1.64,-0.0664,0.0471,-0.0144
CTTCCAT,0.0325,0.0391,-0.0142,-0.836,-0.155,-0.571,-0.126,-0.0178,-0.0358
ACGACCT,0.0143,0.139,-0.0201,0.435,0.1,0.831,0.0469,0.0475,0.191
CGATTTG,0.0388,0.0878,-0.0199,0.577,0.0626,0.882,0.19,0.058,0.136
GGGGAGG,0.126,0.145,0.86,1.77,-0.00516,2.27,0.342,0.0608,0.21
CTTTTTG,0.012,0.00684,-0.632,-0.471,0.095,-1.22,0.0872,0.0864,-0.0555
GGTGGCC,0.0371,0.0953,0.628,1.41,0.112,1.9,0.274,0.159,0.166
AAGAAAA,-0.037,0.109,0.0363,0.124,0.000545,-0.175,-0.331,-0.0156,0.0702
TAAAATC,0.123,0.142,-2.95,-2.75,0.151,-1.42,0.182,0.0688,-1.15
AGGCCTA,-0.042,0.00822,0.404,0.534,0.062,1.09,-0.0447,-0.00096,0.0604

Sequence,uncleaved DNA left (log2) [1],uncleaved DNA left (log2) [2],uncleaved DNA left (log2) [3],uncleaved DNA left (log2) [4],uncleaved DNA left (log2) [5],uncleaved DNA left (log2) [6],uncleaved DNA left (log2) [7],uncleaved DNA left (log2) [8],uncleaved DNA left (log2) [9]
CCTGTGT,0.0674,-0.296,-0.481,-0.936,-0.229,-1.23,-0.0658,-0.221,-0.287
TGCACAG,-0.0197,0.0944,-0.335,-0.413,0.08,-0.569,0.146,0.111,-0.0588
CATCGAC,0.0313,0.00705,-0.184,-0.0472,0.0729,-0.431,0.0405,-0.0244,-0.104
GGCATAA,-0.0245,0.0313,0.525,1.45,-0.0261,1.8,0.0975,-0.0234,0.185
ATGCGCT,0.0901,-0.0626,-0.591,-0.866,-0.15,-1.03,0.00154,-0.0517,-0.105
CTATGAA,-0.171,0.0945,-0.0188,-0.239,0.107,-0.771,-0.0976,0.0425,-0.0518
CGCATCT,-0.0244,-0.114,-0.3,-1.61,-0.148,-0.659,-0.254,-0.087,-0.199
TATAGCT,-0.026,-0.148,-0.967,-2.66,0.0824,-1.17,-0.647,-0.045,-0.158
GCGTTGG,0.0286,0.00249,-0.439,-0.234,-0.0599,-0.796,0.101,-0.0461,-0.208
CACCATG,-0.0765,0.0105,-0.699,-0.647,0.0822,-1.05,-0.0893,0.245,0.0292
CTACCAA,0.122,0.0505,-0.0894,-1.89,0.0306,-0.48,-0.516,0.0408,0.0641
GGATGAG,0.0164,-0.0503,-0.266,0.233,0.0293,-0.302,0.182,0.0978,-0.000923
GAACAAA,-0.0801,0.0472,0.355,0.568,0.0332,1.05,0.0469,0.0297,0.104
GTACGCG,0.0989,0.0481,-0.8,-0.243,0.0168,-0.682,0.167,0.0374,-0.0218
AGACCCG,0.0213,-0.0271,0.882,1.81,0.0353,1.97,-0.0452,-0.0536,0.208
CGCGACG,0.169,0.091,0.0115,0.674,0.0478,1.3,0.183,-0.0223,0.0623
CGGCATA,-0.0478,0.0054,0.226,0.943,-0.00451,1.16,-0.134,0.00843,0.1
CCCCTGG,-0.194,-0.154,-0.0262,0.307,-0.0543,-0.302,-0.111,-0.168,-0.181
TGGTGAA,0.0511,-0.0118,0.329,0.65,0.0735,1.23,0.045,-0.0393,0.0455
GCAAGGG,-0.0871,0.0364,-0.13,0.0771,0.0165,-0.549,0.186,0.00649,-0.0235

# Reference: the supplement of paper PMC7826260
